The list shows a part of the results.

The labels stand for the following.
T1: UNK ZnF1-6 (called full-length) (human, UniProt Q9C0B0 30-357)
T1 sequence: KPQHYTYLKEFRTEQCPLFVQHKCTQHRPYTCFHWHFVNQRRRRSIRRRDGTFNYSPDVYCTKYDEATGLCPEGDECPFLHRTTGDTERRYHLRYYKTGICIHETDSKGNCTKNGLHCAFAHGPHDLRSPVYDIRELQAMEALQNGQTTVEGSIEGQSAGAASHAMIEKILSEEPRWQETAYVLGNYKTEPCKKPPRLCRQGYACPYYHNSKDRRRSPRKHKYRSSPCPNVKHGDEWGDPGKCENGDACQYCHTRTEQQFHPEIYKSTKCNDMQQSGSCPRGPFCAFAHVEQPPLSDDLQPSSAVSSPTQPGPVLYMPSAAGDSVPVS

B1: ENSG00000104643:stop:overlap|stop_codon|ENSG00000104643|stop_codon|NA|stop_codon (ssRNA)
RNA: GGGAGUUCUACAGUCCGACGAUCAUAUUCCUGGAAUGGAGGAAUGCUUGAAUAUAGCCAGUUCCAUUGAGAAUCCCUCCUGCUAGCCCUCCACCCUUCCCCGAAUACAUCUGGACACGAUUUGCAUUGUCUACUCUGGACUCCCAACAGAGGAUUGAGCAUCA
B2: chr14:106324253:106324560:-|CDS|ENSG00000211952|control|control|control (ssRNA)
RNA: GGGAGUUCUACAGUCCGACGAUCCUAUUAUAGUGGGAGCACCUACUACAACCCGUCCCUCAAGAGUCGAGUCACCAUGUCAGUAGACACGUCCAAGAACCAGUUCUCCCUGAAGCUGAGCUCUGUGACCGCCGUGGACACGGCCAACAGAGGAUUGAGCAUCA
B3: chr16:70160055:70160156:+|3pUTR|ENSG00000090857|msi1|total|mutant (ssRNA)
RNA: GGGAGUUCUACAGUCCGACGAUCUUGUGCUCACCACGAAGGAUGGUCUCUGCCUUCUCUUGUCGGUGUAUGCCAUCUGAACCCCGGAACACAAAGUAUAUUGGCCUCAAACGGAGACCCAGGGUUGCCAGUUUUCCGUGGGCCCAACAGAGGAUUGAGCAUCA
B4: chr11:107429260:107429366:-|CDS|ENSG00000152404|unk|FALSE|unique (ssRNA)
RNA: GGGAGUUCUACAGUCCGACGAUCGAGGAAACCCACAUAUUCAGAUAAAGCACAAAAUUGUCAAGAAAGUAGAGAAUCAGACUUAGUAAAAUAUGGUAACAGUUCAAGGGAUAGAUAUGCUACAACAGAUACUGCAAAAAAUAGCAACAGAGGAUUGAGCAUCA
B5: chr3:45095346:45095568:-|CDS|ENSG00000163814|control|control|control (ssRNA)
RNA: GGGAGUUCUACAGUCCGACGAUCAAACAGAGCCGCAAGUUUGUCCCUGGCUGUUUCGUGUGUCUAGAAUCUCGGACCUGCAGUAGCAACCUCACCCUGACAUCUGGCUCCAAACACAAAAUCUCCUUCCUUUGUGAUGAUCUGCAACAGAGGAUUGAGCAUCA
B6: chr10:87814449:87814585:-|CDS|ENSG00000138138|unk|FALSE|bound_elsewhere (ssRNA)
RNA: GGGAGUUCUACAGUCCGACGAUCUUUAAUUUUCCGUUUGACAAUAUUUGGUGCAGUGACAUACUUUACUAUCAAAUGGAUGGUAGAUGCAAUUGAUCCAACCAGAAAGCAAAAAGUAGAAGCUCAGAAACAGGUAUGAUUGAACAACAGAGGAUUGAGCAUCA
B7: chr17:58495858:58495960:-|CDS|ENSG00000108389|unk|FALSE|unique (ssRNA)
RNA: GGGAGUUCUACAGUCCGACGAUCAGAAGAGACUAAGGGACCAGCUCCAGACCCUUCUGCCCAGGAUGAGCUGGGUAGGACUUUAGAUGGCAUAGGGGAGCCACCUGAACAUUGUCCUGAAACAGAAGCUGUCAGUGCACUCUCCAACAGAGGAUUGAGCAUCA
B8: chr6:53267885:53267986:-|3pUTR|ENSG00000012660|msi1_unk|FALSE|overlapping (ssRNA)
RNA: GGGAGUUCUACAGUCCGACGAUCUUUAAUGUAAAUCUAAUAGUACUUGUAAUUUCUUUCUGCUUAGAAUCUAAAGAUGUGUUUAGAACCUCUUGUUUAAAAAUAAUAGACUGCUUAUCAUAAAAUCACAUCUCACACAUUUGACAACAGAGGAUUGAGCAUCA
B9: ENSG00000066933:stop:overlap|stop_codon|ENSG00000066933|stop_codon|NA|stop_codon (ssRNA)
RNA: GGGAGUUCUACAGUCCGACGAUCAUAGCUCAGAGAAUUUGAAUAUGGAGUCUGAAUAUGCUAUCUCUGAGAAAUCAGAAGCUUAGCCCUUAGCUCCCUGAAGACAGCUGGCAAGUCUGAACCUUCCAGCAAGUUGCGAAAGCACAACAGAGGAUUGAGCAUCA
B10: chr9:136477283:136477384:-|CDS|ENSG00000148396|msi1|total|mutant (ssRNA)
RNA: GGGAGUUCUACAGUCCGACGAUCGCCCCCGCAGGGUUUUCUCAGCACCCCGGUUUGCUUGUUCCUCACACACAUGCCAGAGACCGCUCUCAGGGACCCUGUGAGCCCCUGCCUGGACCUCUGACACAGCCCAGAGCACAUGCCCAACAGAGGAUUGAGCAUCA
B11: chr21:39342314:39343159:-|three_prime_utr|ENSG00000205581|control|control|control (ssRNA)
RNA: GGGAGUUCUACAGUCCGACGAUCCCCUUCUUGUACAAUCCAGAGGAAUAUUUUUAUCAACUAUUUUGUAAAUGCAAGUUUUUUAGUAGCUCUAGAAACAUUUUUAAGAAGGAGGGAAUCCCACCUCAUCCCAUUUUUUAAGUGCAACAGAGGAUUGAGCAUCA
B12: chr3:138622260:138622368:+|CDS|ENSG00000158234|unk|total|mutant (ssRNA)
RNA: GGGAGUUCUACAGUCCGACGAUCAUCCGUGGGCAAAGAAACAUUCUAUGUUGGAGCUGCAAAGACAAAAGCGACCAUAAAUACCGACGCUAUCAGUGGUUUUGCUUAUGAAUAUACUCUGGAAAUUAAUGGGAAAAGUCUCAACAACAGAGGAUUGAGCAUCA
B13: chr1:67413009:67413110:-|3pUTR|ENSG00000142864|unk|FALSE|unique (ssRNA)
RNA: GGGAGUUCUACAGUCCGACGAUCCUGAAUUUUAUCUGUUUUAAAAAUGAACUUCUCCCGCUACACAGAAGUAACAAAUAUGGUAGUCAGUUUUGUAUUUAGAAAUGUAUUGGUAGCAGGGAUGUUUUCAUAAUUUUCAGAGAUCAACAGAGGAUUGAGCAUCA
B14: chr4:75577918:75578020:-|3pUTR|ENSG00000138769|unk|FALSE|unique (ssRNA)
RNA: GGGAGUUCUACAGUCCGACGAUCGGUUGUUUAGGGAACCAGAAUUUGUGAGUUUUUUUUUUUUUUUUGCCUUAACUAAUUAAUAGUGUGUUGCUUUUUUUCCAAAGCCAUUGACUAGAACUUAGCUGAAGAAUUUAACUAGAACAACAGAGGAUUGAGCAUCA
B15: ENSG00000006432:stop:overlap|stop_codon|ENSG00000006432|stop_codon|NA|stop_codon (ssRNA)
RNA: GGGAGUUCUACAGUCCGACGAUCGAGCGGAACUGAACACACACAGGCCUGCCCCUUAUGAGAUCCAGCAGGAGUUCUGGUCUUAGCACGAAAAGGAUUGGGGCGGGCAAGGGGGACAGCCAGCGGAGAUGAGGGGAGCUGGCGCAACAGAGGAUUGAGCAUCA
B16: chr17:75827259:75827360:-|3pUTR|ENSG00000092929|unk|FALSE|unique (ssRNA)
RNA: GGGAGUUCUACAGUCCGACGAUCGGACAGUUUGGCUGCUGUGUCUGCUGCGCACGCCCCCUCCCCGGACAGCACCUGCCACCUAGAAACUUUCUUAGCAAAAAAAUUAAUAAAAACAAAUCCAUUGUCCUCUUAAAAUAUGCCCAACAGAGGAUUGAGCAUCA
B17: chr19:4409044:4409156:+|CDS|ENSG00000167670|unk|FALSE|unique (ssRNA)
RNA: GGGAGUUCUACAGUCCGACGAUCCUGUCAUGUGGGUUCUGACAUAGACUUUAGACCGAAACUUGUCAACGGGAAGGGUCCCUUAGAUAACUUUUUAAGAAAUAGAAUCGAAACCAGUAUUGGCCAGAGCACAGUCAUCAUUGACAACAGAGGAUUGAGCAUCA
B18: chr10:74120044:74120145:+|3pUTR|ENSG00000035403|msi1|total|mutant (ssRNA)
RNA: GGGAGUUCUACAGUCCGACGAUCAAAAAAAAUCCCUGAAUGAUGAUCCGAGACAUCACCGCUAAAAAACUACAUUUAUAAGCCCGGAUUUGUUAUAUGCAAAUAUUUUCUGCCUCUUCUUUUGUUCUGUUUAAAACAAUAAAACAACAGAGGAUUGAGCAUCA
B19: chr3:125228010:125228111:-|3pUTR|ENSG00000163848|msi1|FALSE|unique (ssRNA)
RNA: GGGAGUUCUACAGUCCGACGAUCAGUUCUCUUCAUAUUUCAUAACUACAUUUCAAUAAUUCUAAACUUUCUACAUUGAUUUUUAGAUACUUAUUUUUCAAGCUUGGUUUCUCAGCUGAUCAGAUGAAUUUAUUCAACUUCAAUCAACAGAGGAUUGAGCAUCA
B20: ENSG00000168795:stop:overlap|stop_codon|ENSG00000168795|stop_codon|NA|stop_codon (ssRNA)
RNA: GGGAGUUCUACAGUCCGACGAUCAGCACUCAAAGACUACCUGCCUGCGCUGGCAGAGCAGCAAUCUUCCCAGCACUUUGCUCUAGCUGUUUGUCCUUACAAGACAACGCUGAGGCCAGUUGUCAGACUGAAUUUCUUUUGGUACAACAGAGGAUUGAGCAUCA
B21: chr1:229660051:229660152:+|3pUTR|ENSG00000135763|msi1|total|mutant (ssRNA)
RNA: GGGAGUUCUACAGUCCGACGAUCCUCAUUCACCGUCUCAGUUACCCAGAUAACCUCGGUUGUCACCUUGGAGUAUCUUGUUGCCGUCCCUUUACUAUGUGUAUGUAUACCGAUGUGCAUAUAAAUAUAUACCGCCGCUAAAUUCAACAGAGGAUUGAGCAUCA
B22: chr1:64777895:64778004:+|CDS|ENSG00000162437|unk|total|mutant (ssRNA)
RNA: GGGAGUUCUACAGUCCGACGAUCGGAUUUGUGGAAUACAUGAAAAAGGACUUUGCUGCAAAGGCCCGACUGGAGCUAUUGGGCCGACAGUUGGGAGCAUCAGCACUCUUUGCACAAUGGAUGGAUGUUAAUCUAUUGGCUUCACAACAGAGGAUUGAGCAUCA

For the experiment, the target named is T1, UNK ZnF1-6 (called full-length). As to the kind of experiment: nsRBNS (natural sequence RNA bind-n-seq); RBNS binding buffer (assumed for nsRBNS): 25 mM Tris pH 7.5, 150 mM KCl, 3 mM MgCl2, 0.01% Triton X-100, 500 ug/ml BSA, 20 U/ml SUPERase-In, 4 C; UNK is unkempt and MSI1 is Musashi-1; names of the RNAs are library labels; protein concentration not given here; high values mean tight binding.
Turning to B1, the binding signal stood at 2.83 enrichment R.
To B2 belongs 0.66 enrichment R; to B3, 0.469 enrichment R; to B4, 1.66 enrichment R.
To B5 belongs 0.73 enrichment R; to B6, 0.395 enrichment R; to B7, 0.865 enrichment R.
Turning to B8, the binding signal is 10.2 enrichment R.
In the case of B9 it was 15.4 enrichment R.
Consider B10, for which the binding signal worked out at 0.864 enrichment R.
B11 gave a binding signal of 1.97 enrichment R.
In the case of B12 it was 0.396 enrichment R; in that of B13, 3.09 enrichment R; in that of B14, 5.54 enrichment R.
To B15 belongs 11.7 enrichment R.
Take B16: the binding signal is 25.7 enrichment R.
In the case of B17 it was 7.95 enrichment R; in that of B18, 0.68 enrichment R; in that of B19, 3.33 enrichment R.
Turning to B20, the binding signal amounted to 7.1 enrichment R.
In the case of B21 it was 0.318 enrichment R; in that of B22, 0.468 enrichment R.

Values taken from publication PMC12136788.
